Laboratory results taken from PubChem BioAssay AID493208 (National Center for Advancing Translational Sciences (NCATS), 2011).
Screen size: about 44,000 compounds; about 340 (0.77%) were called active. Roughly 5% stayed inconclusive and do not appear here. The call rests on the fitted dose curve; in most records, active means well fitted inhibition curve with a large enough effect; inconclusive means small, poorly fitted or top-dose-only effect; inactive means flat fitted curve, though single readings scatter. The list shows a part of the results.

assay: Acumen qHTS Assay for Inhibitors of the mTORC1 Signaling Pathway in MEF (Tsc2-/-, p53-/-) Cells: Sytravon; conditions: phospho-rpS6 immunofluorescence/PI, 24 h; series mostly up to 38.3 µM; activity change, negative = inhibition: at the top concentration;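 further: plate controls were DMSO for no effect and rapamycin for full effect; nearly all actives have a fitted effect of over 50% in size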
Procedure, shortened: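 Tsc2-/-, p53-/- mouse embryonic fibroblasts (empty-vector line) exposed to compound 24 hrs at 37 C, fixed, immunostained for phospho-rpS6 and counterstained with propidium iodide. Acumen laser scanning gives % positive cells from Alexa 488/PI ratio, thresholded using 7.5 nM rapamycin; PI count gives viability.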

Row | Compound | activity change, negative = inhibition
1 | CCOc1ccc(-c2cc3nc(C4CCN(C(=O)OC(C)(C)C)CC4)c(C(=O)Nc4cccc(Cl)c4C)cn3n2)cc1 | inactive: 3.18%
2 | O=C(CCC(=O)N1CCOc2ccccc21)NCc1cccs1 | inactive: -0.895%
3 | CCN(c1ccccc1)c1ncnc2c1cnn2-c1ccc(OC)cc1 | inactive: -2.06%
4 | Cc1ccc2[nH]c3c(=O)n(CC(=O)N4CCN(c5ccccc5F)CC4)ncc3c2c1 | inactive: 1.62%
5 | CC(=O)N1CCCc2cc(S(=O)(=O)N3CCCC(C(=O)Nc4ccc(F)cc4F)C3)ccc21 (configuration not stated) | inactive: 0.925%
6 | Cc1cc(N2CCN(C)CC2)nc2ccc(NC(=O)Nc3ccc(F)cc3)cc12 | inactive: -2.04%
7 | O=S(=O)(NCCc1nnc2ccc(SCc3cccc(Cl)c3)nn12)c1ccccc1 | inactive: 2.21%
8 | COc1ccc(Cn2c(CNC(=O)Cc3ccc(OC)c(OC)c3)nc3cccnc32)cc1 | inactive: -1.67%
9 | O=C(Cn1c(=O)n(Cc2ccco2)c(=O)c2sc3ccccc3c21)Nc1ccc(F)cc1F | inactive: 0.739%
10 | COc1ccc(C(=O)N(Cc2ccco2)Cc2ccccc2F)cc1Cl | inactive: -21%
11 | COc1ccc(-c2cc(C(F)(F)F)c(C#N)c(SCC(=O)Nc3cccc(C)c3)n2)cc1 | inactive: 4.8%
12 | O=C(NCC(c1ccco1)S(=O)(=O)c1ccc(Cl)cc1)c1ccc(C(F)(F)F)cc1 (configuration not stated) | inactive: -10.5%
13 | Cc1ccc(Cn2c(SCc3ccc(C(=O)O)cc3)nc3cccnc32)cc1 | inactive: 0.955%
14 | COc1cccc(CC(=O)Nc2c(C(=O)N3CCN(c4ccccc4)CC3)oc3ccccc23)c1 | inactive: -8.67%
15 | CCOC(=O)CCc1c(C)c2cc3c(c(C)c2oc1=O)OCN(CCc1ccccc1OC)C3 | inactive: -23.9%
16 | CCOc1ccc(CCNC(=O)c2ccc3nc(N4CCC(C)CC4)sc3c2)cc1OCC | inactive: -0.784%
17 | CCN(CCCNC(=O)CN1N=C(c2ccccc2)CCC1=O)c1cccc(C)c1 | inactive: 6.12%
18 | CCC(C)n1c(=O)c2sccc2n2c(CCCC(=O)Nc3ccc(F)cc3)nnc12 (configuration not stated) | inactive: 4.07%
19 | CSc1ncc(Cl)c(C(=O)Nc2c(C(=O)c3ccc(C)cc3)oc3ccccc23)n1 | inactive: 2.01%
20 | Cc1ccc(NC(=O)NC(C)c2c(-n3cccc3)sc(C)c2C)c(C)c1 (configuration not stated) | inactive: 0.423%
21 | Cc1ccc(SCC(=O)Nc2ccc(O)c(-c3nc4cc(C)ccc4o3)c2)cc1 | inactive: -1.62%
22 | COc1ccc(NC(=O)c2ccco2)cc1NC(=O)c1cccc(C)c1OC | inactive: 1.38%
23 | O=C(Nc1ccccc1)C1CCN(S(=O)(=O)c2ccc3c(c2)CCCN3C(=O)C2CCC2)CC1 | inactive: -8.88%
24 | COc1ccc(Cn2c(CCC(=O)Nc3cc(C)cc(C)c3)nc3cccnc32)cc1 | inactive: 1.66%

Row | Compound | activity change, negative = inhibition
25 | Cc1ccc2c(CN3CCN(c4ccc(Cl)cc4)CC3)cc(=O)oc2c1 | inactive: 0.861%
26 | Cc1ccc(CNC(=O)CCCCCn2c(=O)c3sccc3n(CC(=O)C(C)(C)C)c2=O)cc1 | inactive: 2.83%
27 | CCOc1cc(CNC(=O)CSc2n[nH]c(-c3ccccc3)n2)cc(OCC)c1OCC | inactive: 0%
28 | Cc1ccc(NC(=O)CSc2nc(=O)n(Cc3ccncc3)c3c2CCC3)cc1Cl | inactive: -1.5%
29 | COc1ccc(Nc2ncc(C(=O)Nc3cccc(OC)c3)c3ccccc23)cc1 | inactive: 0%
30 | Cc1ccc(Cl)cc1N(C)C(=O)c1sc2nc3n(c(=O)c2c1C)CCCC3 | inactive: 2.95%
31 | COC(=O)c1cc(NC2(c3ccccc3)C(=O)c3ccccc3C2=O)cc(C(=O)OC)c1 | inactive: 1.18%
32 | O=C(NCC1(c2ccccc2)CCCC1)C(=O)Nc1cccc(C(F)(F)F)c1 | inactive: -4.63%
33 | COc1ccc2nc(NS(=O)(=O)c3ccc(C)cc3)c(Nc3cc(Cl)ccc3OC)nc2c1 | inactive: -0.434%
34 | CCOC(=O)Cn1c(=O)oc2cc(S(=O)(=O)NCc3ccc(F)cc3)ccc21 | inactive: 1.8%
35 | Cc1ccc(Cl)cc1N1CCN(C(c2ccc(F)cc2)c2nnc(-c3ccccc3)o2)CC1 (configuration not stated) | inactive: -6.01%
36 | COc1ccc(-c2cc(C(=O)N3CCN(c4ccccc4OC)CC3)c3cc(C(C)C)ccc3n2)cc1 | inactive: -10.1%
37 | COC(=O)c1sccc1S(=O)(=O)N1CCN(c2cccc(C)c2C)CC1 | inactive: 1.72%
38 | O=C(CSc1n[nH]c(-c2ccccc2)n1)N1CCCCC1 | inactive: 4.06%
39 | CCOc1ccc(CC(=O)NCCc2csc3nc(-c4ccccc4F)nn23)cc1 | inactive: -14.8%
40 | Cc1noc(/C=C/N(C)C)c1S(=O)(=O)N1CCCC(C(=O)Nc2cccc(F)c2)C1 (configuration not stated) | inactive: 1.04%
41 | Cc1ccc(CNC(=O)c2nc(SCc3cccc(C)c3)ncc2Cl)cc1 | inactive: 1.7%
42 | Cc1ccc(CNC(=O)c2cn(C)c3ccc(S(=O)(=O)N(C)C4CCCCC4)cc3c2=O)cc1 | inactive: -2.94%
43 | CCc1ccc(-n2nc3ccc(NC(=O)c4cc5ccccc5o4)cc3n2)cc1 | inactive: -1.22%
44 | CCOc1ccc(-c2cc3c(=O)n(Cc4nc(-c5cccc(OC)c5OC)oc4C)ccn3n2)cc1Cl | inactive: -2.62%
45 | CCC(=O)N1CCc2cc(S(=O)(=O)CCC(=O)N3CCN(c4cccc(C)c4)C(C)C3)ccc21 (configuration not stated) | inactive: -8.44%
46 | CCN(Cc1ccc(OC)cc1)c1ccc(-c2nc(-c3ccncc3)no2)cc1[N+](=O)[O-] | inactive: 2.36%
47 | O=C(NCCc1ccccc1)c1ccc(Cn2c(SCc3ccc(F)cc3)nc3cccnc32)cc1 | inactive: -2.98%
